For this assay, the system named is NCI-H322M lung. In words: NCI tumour cell line growth inhibition, 48 h.

From PubChem BioAssay (NCI) come the findings set out here.

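The compound was tested at five concentrations on cells cultured in 96-well plates, with a 48-hour exposure period. Here, GI50 denotes the concentration required for 50% inhibition of growth. TGI: concentration producing complete growth inhibition.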 Where only a bound is given, the exact number is not on record here.

`CN1CCN(c2ccc(Nc3nc(NCCCNS(=O)(=O)c4cccc(F)c4)c4sccc4n3)cc2)CC1`: the GI50 was 5 µM and the TGI came to 16.9 µM.
As for `N#Cc1cccc(/C(N)=N/C(N)=N/c2nc3ccccc3s2)c1`, the GI50 was 4.33 µM and the TGI is > 100 µM.
